Experimental data: BigSolDB 2.1

CN(C)CCOC(c1ccccc1)c1ccccc1.Cl
solubility (mole fraction)
Conditions | 278.15 K | 283.15 K | 288.15 K | 293.15 K | 298.15 K | 303.15 K | 308.15 K | 313.15 K | 318.15 K | 323.15 K
in acetone | 0.00151 | 0.00193 | 0.00223 | 0.00259 | 0.00302 | 0.00352 | 0.00408 | 0.00488 | 0.0055 | 0.00662
in ethanol | 0.0217 | 0.0296 | 0.0392 | 0.0505 | 0.0633 | 0.0774 | 0.0924 | 0.108 | 0.12 | 0.137
in ethyl acetate | 4.96e-05 | 8.31e-05 | 0.000141 | 0.000226 | 0.000309 | 0.000431 | 0.000604 | 0.000811 | 0.000986 | 0.00126
in methanol | 0.122 | 0.138 | 0.147 | 0.156 | 0.162 | 0.167 | 0.173 | 0.18 | 0.191 | 0.195
